The results in this text go back to patent US5972982A (priority 1997, dated 1999).

Experiment [1] deals with Mycobacterium tuberculosis strain H37Rv.
For experiment [2], the system named is Poliovirus Type III vaccine strain (ATCC VR 300).
Experiment [3] has as its system Respiratory Syncytial Virus (RSV, strain Long).

As for `CCCCCCCCCCCCCCCCCCOCC(CO)n1ccnc1` (stereo not shown) [CPR 1005, 1-O-octadecyl-2-(1-imidazolyl)-2-deoxy-glycerol], the colony growth inhibition entry in experiment [1] is listed as “inhibits the colony growth relative to control”; in the experiment on Streptococcus pyogenes, “inhibited the colony growth relative to the controls”. The “VIRAL CPE” value is 1+ (key: ±: None of the cells rounded; 1+: <25% of cells rounded; 2+: 25 to 50% of the cells rounded; 3+: 75% of the cells rounded; 4+: 100% of the cells rounded) in experiment [2] and 2+ (key: ±: None of the cells rounded; 1+: <25% of cells rounded; 2+: 25 to 50% of the cells rounded; 3+: 75% of the cells rounded; 4+: 100% of the cells rounded) in experiment [3]. Moreover, the “development of viral cytopathic effect (in words)” value is on record as “inhibited the development of viral cytopathic effect” in experiment [2] and “inhibits the development of viral cytopathic effect” in experiment [3].
In the case of `CCCCCCCCCCCCCCCCCCOCC(CO)n1cncn1` (stereo not shown) [CPR 1004, 1-O-octadecyl-2-(1-triazolyl)-2-deoxy-glycerol], the colony growth inhibition result in experiment [1] is “inhibits the colony growth relative to control”; in the experiment on Streptococcus pyogenes it was “inhibited the colony growth relative to the controls”. For the same molecule, in experiment [2], the “development of viral cytopathic effect (in words)” value is on record as “inhibited the development of viral cytopathic effect”.
For the molecule `CCCCCCCCCCCCCCCCOCC(CO)n1ccnc1` (stereo not shown) [CPR 1104, 1-O-hexadecyl-2-(1-imidazolyl)-2-deoxy-glycerol], the colony growth inhibition result in experiment [1] is “inhibits the colony growth relative to control”.
